Measured values as given in patent US20240417463A1 (ADAGENE PTE, published 2024).

T1: mCD47-ECD/His protein (Sinobiological) (mouse, UniProt Q61735 19-140, limits assumed)
T1 construct: extracellular domain; Bought protein; also called mouse CD47; not shown: His tag
T1 sequence (looked up): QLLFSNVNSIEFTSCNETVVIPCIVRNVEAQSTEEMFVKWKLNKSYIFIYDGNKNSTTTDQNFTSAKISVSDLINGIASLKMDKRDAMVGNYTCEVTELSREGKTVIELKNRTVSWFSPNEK


Legend:
[1] = target: T2, human CD47 on the cell surface (CEM, Raji and other human tumor cells, human RBCs) (human, UniProt Q08722); assay: cell-based or functional assay
[2] = target: T1, mCD47-ECD/His protein (Sinobiological); assay: ELISA, coated mCD47-ECD/His
[3] = target: T3, cynoCD47-ECD/His protein (Sinobiological) (cynomolgus monkey, UniProt A0A2K5X4H8 19-141); assay: ELISA, coated cynoCD47-ECD/His
T3 construct: Bought protein; also called cynomolgus monkey CD47; Monkey CD47

[4] = target: T2, human CD47 on the cell surface (CEM, …); assay: flow cytometry, CEM cells, batch 1
[5] = target: T2, human CD47 on the cell surface (CEM, …); assay: flow cytometry, CEM cells, batch 2
[6] = target: T4, hCD47-ECD/Fc protein (Sinobiological) (human, UniProt Q08722 fragment, biotinylated in the Octet assay, sites not stated); assay: ELISA, coated hCD47-ECD/Fc, batch 1
T4 construct: extracellular domain; Bought protein; also called human CD47-Fc antigen; recombinant hCD47-ECD/Fc; not shown: Fc part of the bought fusion protein

[7] = target: T4, hCD47-ECD/Fc protein (Sinobiological); assay: ELISA, coated hCD47-ECD/Fc, batch 2
[8] = target: T4, hCD47-ECD/Fc protein (Sinobiological); assay: ELISA, coated hCD47-ECD/Fc, batch 3
[9] = target: T2, human CD47 on the cell surface (CEM, …); assay: flow cytometry, Raji cells, batch 1
[10] = target: T2, human CD47 on the cell surface (CEM, …); assay: flow cytometry, Raji cells, batch 2
[11] = target: T2, human CD47 on the cell surface (CEM, …); assay: flow cytometry, Raji cells, batch 3
[12] = target: T2, human CD47 on the cell surface (CEM, …); assay: flow cytometry, human RBCs, batch 1
[13] = target: T2, human CD47 on the cell surface (CEM, …); assay: flow cytometry, human RBCs, batch 2
[14] = target: T2, human CD47 on the cell surface (CEM, …); assay: flow cytometry on CEM cells, EC50 ratio against parental TY26896; member found by dividing the values of the 21st table, batch 1
[15] = target: T2, human CD47 on the cell surface (CEM, …); assay: flow cytometry on Raji cells, EC50 ratio against parental TY26896; member found by dividing the values of the 22nd table, batch 2
[16] = target: T2, human CD47 on the cell surface (CEM, …); assay: flow cytometry on CEM cells, EC50 ratio against TY26898 after cleavage; member found by dividing the values of the 21st table, batch 2
[17] = target: T2, human CD47 on the cell surface (CEM, …); assay: flow cytometry on Raji cells, EC50 ratio against TY26898 after cleavage; member found by dividing the values of the 22nd table, batch 2
[18] = target: T2, human CD47 on the cell surface (CEM, …); assay: flow cytometry on Raji cells, EC50 ratio against parental TY26897; member found by dividing the values of the 22nd table, batch 3
[19] = target: T2, human CD47 on the cell surface (CEM, …); assay: flow cytometry on human RBCs, EC50 ratio against parental TY26897; member found by dividing the values of the 23rd table, batch 1
[20] = target: T2, human CD47 on the cell surface (CEM, …); assay: flow cytometry on Raji cells, EC50 ratio against TY26899 after cleavage; member found by dividing the values of the 22nd table, batch 3

T3 sequence (A0A2K5X4H8 entry or part of it limits assumed): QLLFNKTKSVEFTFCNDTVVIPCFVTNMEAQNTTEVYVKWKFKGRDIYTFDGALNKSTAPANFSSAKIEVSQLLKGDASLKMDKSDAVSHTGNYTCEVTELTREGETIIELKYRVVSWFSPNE

Binder	EC50 of macrophage phagocytosis of CEM cells, donor A [1]	EC50 of macrophage phagocytosis of CEM cells, donor B [1]	Max. Phagocytosis (%), donor A [1]	Max. Phagocytosis (%), donor B [1]	binding result [2]	EC50 [3]	EC50 [4]	EC50 [5]	max MFI [5]	EC50 [6]	EC50 [7]	EC50 [8]	EC50 [9]	EC50 [10]	EC50 [11]	max MFI [11]	EC50 [12]	EC50 [13]	max MFI [13]	further results
TY26896 (antibody, human IgG1, kappa) heavy: EVQLVESGGGLVQPGGSLRLSCAASGFTFTNYAIHWVRQAPGKGLEWVSAISGSGSSTYYADSVKGRFTISRDNSKNTLYLQLNSLRAEDTAVYYCARRGSYGFGAFDYWGQGTLVTVSS[skipping human IgG1 constant region] light: DIQLTQSPSSLSASVGDRVTITCRASQTIGRYLNWYQQKPGKAPKLLIYDASNRATGIPSRFSGSGSGTDFTLTISSLQPEDFATYYCQQRYPWPYTFGQGTKVEIKRTVAAPSVFIFPPSDEQLKSGTASVVCLLNNFYPREAKVQWKVDNALQSGNSQESVTEQDSKDSTYSLSSTLTLSKADYEKHKVYACEVTHQGLSSPVTKSFNRGEC	0.22 nM	0.16 nM	78.8%	92.2%	no binding (tested: 8 µM)	0.43 nM	0.27 nM	0.52 nM	334000 MFI	0.19 nM	0.33 nM	0.531 nM	0.49 nM	0.46 nM	0.26 nM	174000 MFI	0.2 nM	0.44 nM	14000 MFI	–
TY26897 (antibody, human IgG1, kappa) heavy: EVQLVESGGGLVQPGGSLRLSCAASGFTFTNYAIHWVRQAPGKGLEWVSAISGSGSSTYYADSVKGRFTISRDNSKNTLYLQLNSLRAEDTAVYYCARRGSYGFGAFDYWGQGTLVTVSS[skipping human IgG1 constant region with changes] light: DIQLTQSPSSLSASVGDRVTITCRASQTIGRYLNWYQQKPGKAPKLLIYDASNRATGIPSRFSGSGSGTDFTLTISSLQPEDFATYYCQQRYPWPYTFGQGTKVEIKRTVAAPSVFIFPPSDEQLKSGTASVVCLLNNFYPREAKVQWKVDNALQSGNSQESVTEQDSKDSTYSLSSTLTLSKADYEKHKVYACEVTHQGLSSPVTKSFNRGEC	0.2 nM	0.13 nM	75.9%	85.9%	no binding (tested: 8 µM)	0.58 nM	0.64 nM	0.44 nM	325000 MFI	0.34 nM	0.34 nM	–	0.39 nM	0.33 nM	0.42 nM	213000 MFI	0.36 nM	0.43 nM	13100 MFI	–
TY26898 (antibody, human IgG1, kappa, also called masked antibody TY26898) heavy: EVQLVESGGGLVQPGGSLRLSCAASGFTFTNYAIHWVRQAPGKGLEWVSAISGSGSSTYYADSVKGRFTISRDNSKNTLYLQLNSLRAEDTAVYYCARRGSYGFGAFDYWGQGTLVTVSS[skipping human IgG1 constant region] light: EVGSYLTVDYFCDIDPLYCNAGGGPLGLAGSGGSDIQLTQSPSSLSASVGDRVTITCRASQTIGRYLNWYQQKPGKAPKLLIYDASNRATGIPSRFSGSGSGTDFTLTISSLQPEDFATYYCQQRYPWPYTFGQGTKVEIKRTVAAPSVFIFPPSDEQLKSGTASVVCLLNNFYPREAKVQWKVDNALQSGNSQESVTEQDSKDSTYSLSSTLTLSKADYEKHKVYACEVTHQGLSSPVTKSFNRGEC	–	–	21.2%	17.8%	no binding	–	407 nM	154 nM	324000 MFI	42.8 nM	158 nM	202 nM	274 nM	356 nM	31.1 nM	118000 MFI	185 nM	653 nM	2800 MFI	masking efficiency (EC50 masked / EC50 parental) [14]: 1510 fold; masking efficiency (EC50 masked / EC50 parental) [15]: 774 fold; masking efficiency (EC50 uncleaved / EC50 cleaved) [16]: 341 fold; masking efficiency (EC50 uncleaved / EC50 cleaved) [17]: 891 fold
TY26899 (antibody, human IgG1, kappa) heavy: EVQLVESGGGLVQPGGSLRLSCAASGFTFTNYAIHWVRQAPGKGLEWVSAISGSGSSTYYADSVKGRFTISRDNSKNTLYLQLNSLRAEDTAVYYCARRGSYGFGAFDYWGQGTLVTVSS[skipping human IgG1 constant region with changes] light: EVGSYLTVDYFCDIDPLYCNAGGGPLGLAGSGGSDIQLTQSPSSLSASVGDRVTITCRASQTIGRYLNWYQQKPGKAPKLLIYDASNRATGIPSRFSGSGSGTDFTLTISSLQPEDFATYYCQQRYPWPYTFGQGTKVEIKRTVAAPSVFIFPPSDEQLKSGTASVVCLLNNFYPREAKVQWKVDNALQSGNSQESVTEQDSKDSTYSLSSTLTLSKADYEKHKVYACEVTHQGLSSPVTKSFNRGEC	–	–	18.6%	14.4%	no binding	–	446 nM	106 nM	387000 MFI	64.6 nM	160 nM	–	156 nM	166 nM	14.8 nM	118000 MFI	124 nM	329 nM	4860 MFI	masking efficiency (EC50 masked / EC50 parental) [18]: 35 fold; masking efficiency (EC50 masked / EC50 parental) [19]: 344 fold; masking efficiency (EC50 uncleaved / EC50 cleaved) [20]: 64 fold
